Measurements taken from the supplement of paper PMC10126150.
Values marked as one replicate rest on one cluster of the flow cell; about a third of the high ones do not repeat.
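Further: ATP exposure 15 min at 22 °C before imaging.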

Each sequence was assayed on ATP (assay: switch fluorescence ratio, 500 uM ATP over buffer (Cy3 cluster intensity, sum of 5 cycles each) (fold (ratio)); higher = stronger signal-on switching upon ATP binding; sequences stand for … in TCGTCGGCAGCGTCAGATGTGTATAAGAGACAGTTTTTTTTTTTTTTTTTTTTTTTTT…TC). Settings: aptamer strand: ATP DNA aptamer (quencher-CACCTGGGGGAGTATTGCGGAGGAAGG + anchor), 100 nM annealed; ATP concentration: 500 uM; one replicate.
How it was run: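 For every switch-domain sequence, the fluorescence ratio is the mean of per-cluster values, each being summed target-cycle Cy3 intensity over summed buffer-cycle Cy3 intensity. Clusters outside 100-1000 RFU were excluded. On a modified Illumina MiSeq flow-cell, the Cy3-labelled switching-strand clusters were annealed to 100 nM quencher-labelled ATP aptamer, imaged in selection buffer and then after 15 min with 500 uM ATP at 22 °C. Five such cycles were run, with NaOH stripping and re-annealing between them.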
For AACGCCGGGT, the switch fluorescence ratio was 1.02. For GGGTATTTCG, the switch fluorescence ratio was 1.06. Work on AGTTTAGGTC yielded a switch fluorescence ratio of 1.01. Work on ATAGGTGGAT yielded a switch fluorescence ratio of 1.01. In the case of TGCAGGGTAC, the switch fluorescence ratio is reported as 1.06. GTCCTGGTCT was tested, and the switch fluorescence ratio was 1.06. CGACGTGTCC was tested, and the switch fluorescence ratio was 1.09. AAATAGTGCA showed a switch fluorescence ratio of 0.976. Work on TCGGTCTGCA yielded a switch fluorescence ratio of 1.02. Work on ATGGAGATTC yielded a switch fluorescence ratio of 0.938. In the case of AGACAGAGTT, the switch fluorescence ratio is reported as 0.986. In the case of CAGGTTCATT, the switch fluorescence ratio is reported as 1.01. In the case of GCCAACCTGT, the switch fluorescence ratio is reported as 0.982. With AACTATGCG the switch fluorescence ratio was 0.978. Sequence CGCCCAATCT has a switch fluorescence ratio of 1.98. AGCGCCGGTA was tested, and the switch fluorescence ratio was 1.05. AAGAGGCGAG gave a switch fluorescence ratio of 1.01. In the case of AAGGTACGG, the switch fluorescence ratio is reported as 1.03. CTTTGTGGAG gave a switch fluorescence ratio of 0.954. With TATACGTCAG the switch fluorescence ratio was 0.983. For ACTGGAATTG, the switch fluorescence ratio was 1.06. ATATGACGAG was tested, and the switch fluorescence ratio was 1.03. AGGAGCGTTT gave a switch fluorescence ratio of 1.01. GCACTAGGGT gave a switch fluorescence ratio of 1.02. For TTTATACCCT, the switch fluorescence ratio was 1.04. With GATTATTTTG the switch fluorescence ratio was 1.04. GGATGCGTAA gave a switch fluorescence ratio of 1.01. For GACTAGTTGA, the switch fluorescence ratio was 1.05. CGTGTCAGA showed a switch fluorescence ratio of 1.09. With TGGGTACTT the switch fluorescence ratio was 0.977. GTGTAGAGCG gave a switch fluorescence ratio of 1.09. GATTGCTAT showed a switch fluorescence ratio of 0.958. In the case of TAAGAGGAAA, the switch fluorescence ratio is reported as 0.977. TTTGGAAGTC showed a switch fluorescence ratio of 1.02. In the case of TGTACAGGGC, the switch fluorescence ratio is reported as 1.05. GCTTGGATGG gave a switch fluorescence ratio of 1.06. For AGCCGCATAG, the switch fluorescence ratio was 5.86. In the case of TGTAGATT, the switch fluorescence ratio is reported as 0.997. Sequence AGTGCTTATC has a switch fluorescence ratio of 0.981. For TGGTCCCAGA, the switch fluorescence ratio was 1.01. Sequence AGTGACTGCG has a switch fluorescence ratio of 1.01. Sequence TAGAGATAGT has a switch fluorescence ratio of 0.955. Work on CATCCTATGT yielded a switch fluorescence ratio of 0.997. GGGCCCCTCT was tested, and the switch fluorescence ratio was 1. Sequence TCCCGGCCGT has a switch fluorescence ratio of 0.97. For CACGTGTAAT, the switch fluorescence ratio was 1.02. For ATGCGCTCTG, the switch fluorescence ratio was 0.988. Work on TTCTTAATGT yielded a switch fluorescence ratio of 0.948. TTGTGGGATG was tested, and the switch fluorescence ratio was 0.975. GTTGTAAGCC gave a switch fluorescence ratio of 1. CCTAGACTTG showed a switch fluorescence ratio of 1.04. For TTTGGTATCA, the switch fluorescence ratio was 0.969. GGCACACGGT gave a switch fluorescence ratio of 1.05. TCTTACAATG was tested, and the switch fluorescence ratio was 0.978. Sequence CTTAGGTGCC has a switch fluorescence ratio of 1.02. Sequence GTTGTAGGCT has a switch fluorescence ratio of 1. Sequence TCTGGCGGTT has a switch fluorescence ratio of 1.06. GGGGATTTAC was tested, and the switch fluorescence ratio was 0.991. In the case of ATGTAAAGGA, the switch fluorescence ratio is reported as 0.979. CGGCTATAGA gave a switch fluorescence ratio of 0.975. AGTTTCATC showed a switch fluorescence ratio of 0.963. With TCTTGGAAAT the switch fluorescence ratio was 0.977. Work on GTGTCTGCTA yielded a switch fluorescence ratio of 0.949. For AATTGGGATA, the switch fluorescence ratio was 1.01. AGGCTGGCTG gave a switch fluorescence ratio of 0.976. TCGGGCGCG was tested, and the switch fluorescence ratio was 0.994. With ATTAGAGGGC the switch fluorescence ratio was 0.962. Work on TTCGGAATGG yielded a switch fluorescence ratio of 1.11. Work on GAATACCCTG yielded a switch fluorescence ratio of 1.01. TTTTTGAG gave a switch fluorescence ratio of 1.05. With AGTGGATGCT the switch fluorescence ratio was 0.896. Work on GCTACTTGA yielded a switch fluorescence ratio of 1.03. CAAAGTGTTT gave a switch fluorescence ratio of 0.957. Sequence CTGAAAGAGA has a switch fluorescence ratio of 0.983. ACAAGTCCTA gave a switch fluorescence ratio of 0.968. With AATGTCATGG the switch fluorescence ratio was 1.02. GGACCAATGC was tested, and the switch fluorescence ratio was 3.72. GTGAAGCGGT was tested, and the switch fluorescence ratio was 0.97. For TCTAGAGCGT, the switch fluorescence ratio was 1.04. TCGGGCATTG showed a switch fluorescence ratio of 0.993. AGATCGCGAA showed a switch fluorescence ratio of 1.09. In the case of GTGTTGGAAG, the switch fluorescence ratio is reported as 0.963. In the case of GGCGGCTTC, the switch fluorescence ratio is reported as 1.01. In the case of TGAGTATATG, the switch fluorescence ratio is reported as 1. With AAATTGCAAT the switch fluorescence ratio was 1. Sequence CATATTCGCC has a switch fluorescence ratio of 0.996. TCTCATTATA showed a switch fluorescence ratio of 0.986. CATTGGGGAA gave a switch fluorescence ratio of 0.99. Work on CACAGTTGAG yielded a switch fluorescence ratio of 1.02. For AGGTGTTGG, the switch fluorescence ratio was 1.03. Sequence GGACGCTCGC has a switch fluorescence ratio of 1.19. For TTTTGTCAAC, the switch fluorescence ratio was 1.01. TTCGAGTTGC was tested, and the switch fluorescence ratio was 1.01. TACGGCTCGG was tested, and the switch fluorescence ratio was 0.987. In the case of GGACAAAGGA, the switch fluorescence ratio is reported as 1.05. Sequence TGCTTTGAGA has a switch fluorescence ratio of 0.988. CGCTTATGTG gave a switch fluorescence ratio of 0.997. TACGCGCTAC was tested, and the switch fluorescence ratio was 3.12. With CGACTAGAAC the switch fluorescence ratio was 1.07. Sequence TGGACCAGGG has a switch fluorescence ratio of 1.04. Sequence ATGCGATCGT has a switch fluorescence ratio of 1.05. TTATCAAGCC showed a switch fluorescence ratio of 0.962. In the case of CCTGTCAACT, the switch fluorescence ratio is reported as 1.04. ATGGAACCG gave a switch fluorescence ratio of 1.08. For ATATCTGAAG, the switch fluorescence ratio was 1.03. Work on GTCAAGTTGT yielded a switch fluorescence ratio of 0.997. CGTGGAGCAC was tested, and the switch fluorescence ratio was 1.15. Sequence GGGCTGGACC has a switch fluorescence ratio of 1.06. CGTGTGCAGT gave a switch fluorescence ratio of 1.05. For GCCGTGCGCC, the switch fluorescence ratio was 1.05. Work on AATTCGTGTG yielded a switch fluorescence ratio of 0.973. GCGGAGGAAA gave a switch fluorescence ratio of 1.05. With TGATATCATG the switch fluorescence ratio was 0.975. Work on GTATTGGGAC yielded a switch fluorescence ratio of 1. For TACGCCGGCA, the switch fluorescence ratio was 1.04. Work on AAACTATAAA yielded a switch fluorescence ratio of 0.989. With CAACCTTGAA the switch fluorescence ratio was 0.977. In the case of CGTTCAAGGT, the switch fluorescence ratio is reported as 1.03. TTACCGCCGC was tested, and the switch fluorescence ratio was 1.1. With CGGTAGAATG the switch fluorescence ratio was 1.01. Work on GCGTACGGCC yielded a switch fluorescence ratio of 1.03. Work on TGTCCCCCTG yielded a switch fluorescence ratio of 1.61. Sequence AGGATTCGCT has a switch fluorescence ratio of 0.996. In the case of GCCCCTAGAA, the switch fluorescence ratio is reported as 1.04. GGTGAGCCCT was tested, and the switch fluorescence ratio was 0.993. TTAATCCAAG was tested, and the switch fluorescence ratio was 1.03. Sequence CGTACCGTAT has a switch fluorescence ratio of 1. In the case of ATATTCAGTG, the switch fluorescence ratio is reported as 0.972. Sequence CAGTGCTGTG has a switch fluorescence ratio of 0.987. ACTTGGGAAC gave a switch fluorescence ratio of 1.03. With AATATGCGTG the switch fluorescence ratio was 0.956. With CTGTGTTTTA the switch fluorescence ratio was 1.02. AGGGATCAGG was tested, and the switch fluorescence ratio was 0.972. With GGCCTCTAGT the switch fluorescence ratio was 1. Work on ATACACCCTT yielded a switch fluorescence ratio of 1.19. TGCCTTAATG was tested, and the switch fluorescence ratio was 0.981. CCACAGTATT showed a switch fluorescence ratio of 1.17. GTCCGTCTT gave a switch fluorescence ratio of 0.968. ACAATGGGTG was tested, and the switch fluorescence ratio was 1.22. For CATTCTCTAA, the switch fluorescence ratio was 0.968. CTGTTATAAT was tested, and the switch fluorescence ratio was 0.97. CATACCCCCG gave a switch fluorescence ratio of 1.55. ATTATTTGTT showed a switch fluorescence ratio of 1. Work on TATCAATGGT yielded a switch fluorescence ratio of 0.986. With CTTTCATGCC the switch fluorescence ratio was 1.02. CGACCTGGTG showed a switch fluorescence ratio of 1.45. TTTTAATAAG showed a switch fluorescence ratio of 1. Work on AGCGACTAGG yielded a switch fluorescence ratio of 1.02. GCGACCCGTG gave a switch fluorescence ratio of 1.22. For TTTGTTCAA, the switch fluorescence ratio was 1.01. For TGAAACTGAT, the switch fluorescence ratio was 0.995. Sequence AACGTTTACG has a switch fluorescence ratio of 0.988. Sequence ACACGGTTAT has a switch fluorescence ratio of 1.05. For ACGCGTGGCT, the switch fluorescence ratio was 1.05. GTAAAATGGA was tested, and the switch fluorescence ratio was 0.969. With CGACACTCTC the switch fluorescence ratio was 1.14. GACACTGGAG was tested, and the switch fluorescence ratio was 1.04.
